The RNAGym collection of RNA variant scans (doi:10.7554/elife.90254)
The source gives no read counts; variants with many changes may rest on few reads.

B1: LINE1-mini (parent)
chain: GGCAGAGCUCAACACAGCGUGGCAAAGUGGCUGUGGCUAGACUGCC

Variants of: B1
Test: self-cleavage, relative activity (ratio to wild type); higher = more cleavage; in vitro, sequencing; the parent is a self-cleaving ribozyme
Variant GGCAGAGCGCAAAACAGCGUGGCAGAGUGGCUGUGGAUAGACUGCU [U9G C13A A25G C37A C46U] has a self-cleavage of 0.16. With GGCAGAGCGCUACACAGCGUGGCAAGAUGGCUGUGGCUAGACUGAC [U9G A11U A26G G27A C45A] the self-cleavage was 0. Variant GGCAGAGCGCAACACAGCGUGGCAAAGUGACCGUGGAUAGACUGAC [U9G G30A U32C C37A C45A] has a self-cleavage of 0.01. For GGCAGAGCGCAACACUGCGUGGCUAAGUGCCUGUGGCUAGACUGCC [U9G A16U A24U G30C], the self-cleavage was 0. With GGCAGAGCGUAACAAAGCGUGGAAAAGUGGGUGUUCCUAGACUGCC [U9G C10U C15A C23A C31G G35U G36C] the self-cleavage was 0.07. GGCAGAGCGCAUCACAGCGUGGCAAAGUGGCUGAGGCUUGACUACC [U9G A12U U34A A39U G44A] gave a self-cleavage of 0.03. With GGCAGAGCGCAUCACAGCGUGGCAAAGUGGCUGUAGCUAAACUGCC [U9G A12U G35A G40A] the self-cleavage was 0.03. In the case of GGCAGAGCGCAACACAGCGUGGCACAGUGGCUGUGGCCAGACUGCC [U9G A25C U38C], the self-cleavage is reported as 0.03. GGCAGAGCGUAACCCAGAGUGGCAAAGUGGCUGUGGCUAGACUGCC [U9G C10U A14C C18A] gave a self-cleavage of 0.02. GGCAGAGCGCAACACAGUGUGGCAAUGUGGCUGUGGCUAGACUGCC [U9G C18U A26U] gave a self-cleavage of 0.07. GGCAGAGCGCAACCCAGCGUGGAAAAGUGGCUGUGGCUAGACUGCC [U9G A14C C23A] gave a self-cleavage of 0.1. For GGCAGAGCGCUACACAGCGUUGCAAAGUGGCUGAGGUUAGACUGCC [U9G A11U G21U U34A C37U], the self-cleavage was 0.01. In the case of GGCAGAGCGCAAAACAGCGUGGUAAAGUGGCUGUGGCUAGACUGCC [U9G C13A C23U], the self-cleavage is reported as 0.06. GGCAGAGCGCAACACAGCGUGGCAAAGUCUUUGUCGCUAGACUGCC [U9G G29C G30U C31U G35C] gave a self-cleavage of 0.02. Work on GGCAGAGCGCAAUACAGCGUGGCAAAGUGGCUGUGGCUGGACUGCC [U9G C13U A39G] yielded a self-cleavage of 0.02. GGCAGAGCGCAACACAGCGUGGCUAAGUGGCUGUGGCUACACUGCC [U9G A24U G40C] gave a self-cleavage of 0.06. GGCAGAGCGUAACACAGCGUGGCAAAAUGACUGUGGCUAGACUGCC [U9G C10U G27A G30A] showed a self-cleavage of 0.08. For GGCAGAGCGCAACACUGCGUGGCAAAUUGGCUGUGGCUAGAUUGCC [U9G A16U G27U C42U], the self-cleavage was 0.02. With GGCAGAGCGCAGCACAGCGUGGCAAAGUGGCUGUGGGUAGACUGCC [U9G A12G C37G] the self-cleavage was 0.02. GGCAGAGCGCAACACAGCGUGGCAACGUGUCUGUGGCUAGACUGCC [U9G A26C G30U] showed a self-cleavage of 0.1. GGCAGAGCGCAACACAGCCUGUCAAAGUAGAUGUGGCUAGACUGCC [U9G G19C G22U G29A C31A] gave a self-cleavage of 0.06. GGCAGAGCGCAACACAGCGUGAGAAAGUGGCUGUAGCUAUACUGCC [U9G G22A C23G G35A G40U] gave a self-cleavage of 0.01. With GGCAGAGCGAAACACAGCGUGGCCAAGUGGCUGUGGCUAGACUGCC [U9G C10A A24C] the self-cleavage was 0.01. With GGCAGAGCGCAACACAGCGUUGCAAAGUGGCUAUGGUUAGACUGCC [U9G G21U G33A C37U] the self-cleavage was 0.03. Variant GGCAGAGCGCAACACAGCGUGGCAAAGUGGCUGUUACUAGAAUGCC [U9G G35U G36A C42A] has a self-cleavage of 0.16. Variant GGCAGAGCGCAACACAGCGUGUCAAAGUGUCUGUGGCUAGACUGCC [U9G G22U G30U] has a self-cleavage of 0.03. Work on GGCAGAGCGCAACACAGCGUGGUGAAGUGGCUGUGGCUUGACUGCC [U9G C23U A24G A39U] yielded a self-cleavage of 0.03. For GGCAGAGCGCAAGACAGCGUAUCAAAGUGGCUGUGGCUAGACUGCC [U9G C13G G21A G22U], the self-cleavage was 0.15. Work on GGCAGAGCGCAACACAGCGUGGCAAAGUGGCUGUGGCUAGUCUCCC [U9G A41U G44C] yielded a self-cleavage of 0.03. Work on GGCAGAGCGCAACACAGCGUCGCAAAGUGGCUGUGGCUAGACUGGU [U9G G21C C45G C46U] yielded a self-cleavage of 0.23. Variant GGCAGAGCGCAACUCAGCGUUGCAAAGUGGCUGUGGCUAGACUGCC [U9G A14U G21U] has a self-cleavage of 0.02. In the case of GGCAGAGCGCAACACAGCGUGGCAAAGUGGCUGUGGUGAGACUACC [U9G C37U U38G G44A], the self-cleavage is reported as 0. With GGCAGAGCGCAACACAGAGUGGCAAAGUGGCUAUGGCUAGACUGCC [U9G C18A G33A] the self-cleavage was 0.02. With GGCAGAGCGCUACACAGCGUCGCAAAGUGGCUGUGGCUAGGCUGCC [U9G A11U G21C A41G] the self-cleavage was 0. Work on GGCAGAGCGCAACACAGCGUGGCAAAGUGGCUGUGGCUCGAAUGCC [U9G A39C C42A] yielded a self-cleavage of 0.03. Variant GGCAGAGCGCAACCCAGCGUGGCAAAGUGGCGGUGGCUAGACUGCC [U9G A14C U32G] has a self-cleavage of 0.01. In the case of GGCAGAGCGCACCACAGCGUGGCAAAGUGGCUGGGGCUAGACUCCC [U9G A12C U34G G44C], the self-cleavage is reported as 0. GGCAGAGCGCAACAAAUCGUGGCAAAGUGGCUUAGGCUAGACUGCC [U9G C15A G17U G33U U34A] gave a self-cleavage of 0.09. GGCAGAGCGCAACACAGCGUGGCAAAGUGGUUGUGGCUAGACUUCC [U9G C31U G44U] gave a self-cleavage of 0.01. For GGCAGAGCGCAACCCAGCGUGAAAAGGUGGCUGUGGCUAGACUGGC [U9G A14C G22A C23A A26G C45G], the self-cleavage was 0.04. GGCAGAGCGCAACACAGCGUUGCAAAGAGGCUGUGGCUAGACUGCC [U9G G21U U28A] showed a self-cleavage of 0.05. For GGCAGAGCGCAACACAACGUGGCAAAGUGGCUGUGGCUAAACUGCC [U9G G17A G40A], the self-cleavage was 0.17. GGCAGAGCGCAACACCGCGUGGCAAAGUGGCUGUAGCUAGACUGCC [U9G A16C G35A] gave a self-cleavage of 0.02. GGCAGAGCGCAACACAGGGUGGCUAAGUGGCUGUAACUAGAUUACC [U9G C18G A24U G35A G36A C42U G44A] showed a self-cleavage of 0.01. GGCAGAGCGCAACACAGAGUGGCAUAGUGGCUGUGGCUAGACUGCC [U9G C18A A25U] gave a self-cleavage of 0.01. For GGCAGAGCGCAACACGGCGUGGCAAAGCGGCUGGGGCUAGACUGCC [U9G A16G U28C U34G], the self-cleavage was 0.04. Variant GGCAGAGCGCAAAACAGCGUGUCAAAGUGGCUUUGGCUAUACUGCC [U9G C13A G22U G33U G40U] has a self-cleavage of 0.02. With GGCAGAGCGCAGCAAAGCGUGGCAUAGUGGCUGUGGCUAGACUGUC [U9G A12G C15A A25U C45U] the self-cleavage was 0.02. Work on GGCAGAGCGCAACACAGCGUGCCAAAGUGACGGUGGGUAGACUGCC [U9G G22C G30A U32G C37G] yielded a self-cleavage of 0.02. Variant GGCAGAGCGCAACACAGCGUGGCAAAGUGGCUGUAGUUAGACAUCC [U9G G35A C37U U43A G44U] has a self-cleavage of 0.03. GGCAGAGCGAAACACAGCCUGGCAAAGUGGCUGUGGCUAGACUGCC [U9G C10A G19C] showed a self-cleavage of 0.01. Variant GGCAGAGCGCAACACAGCGUGGCAAGGUGACUGUGGCUAGACUGCC [U9G A26G G30A] has a self-cleavage of 0.18. GGCAGAGCGCAGAACAGCGUGGGAAAGUGGCUGUGGCUAGACUGCC [U9G A12G C13A C23G] gave a self-cleavage of 0.01. For GGCAGAGCGCAACACAGCGUGGCAAAGUGGCUCUGGAUAGACUGCC [U9G G33C C37A], the self-cleavage was 0.03. Work on GGCAGAGCGCAACACAGCGGGGCAAAGUGGCUGUGGUUAGACUGUC [U9G U20G C37U C45U] yielded a self-cleavage of 0.19. GGCAGAGCGCAACAAAGCGUGGCAAAGUGGCUGUGGCUAGACUAUC [U9G C15A G44A C45U] showed a self-cleavage of 0.03.
